Measurements: the supplement of paper PMC3656093
± gives the standard deviation of the averaged measurements. Whole data set: some 1,900 compounds, median “CD40L-induced NF-kB luciferase activity, plate-corrected, relative to DMSO (0) and IKK inhibitor VII (-100) controls” near 0.032, cut for the lowest 2% near -26. The list shows a part of the results.

These compounds were tested on BL2-NFkB-Luc (assay: CD40L-induced NF-kB luciferase activity, plate-corrected, relative to DMSO (0) and IKK inhibitor VII (-100) controls (% normalized activity); higher = more NF-kB reporter activity (less inhibition)). Conditions: 9.4 µM; stimulus: tCD40L 64 ng/ml; 4.5 h.
Protocol: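 BL2 B cells with a stable NF-kB response-element luciferase reporter (BL2-NFkB-Luc), 384-well. Cells were pre-incubated with compound at 9.4 uM for 1 h at 37 C, then stimulated with 64 ng/ml trimerized CD40L for 4.5 h; luciferase was read with Steady-Glo. Signal was normalised per plate in Genedata (median DMSO neutral control = 0, median IKK inhibitor VII at 50 uM = -100) with Assay Median plate-pattern correction; duplicate plates.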

SMILES | CD40L-induced NF-kB luciferase activity
CC(C)CN1CCN(Cc2ccc(C#CC(C)(C)O)cc2)CC1CCO (configuration not stated) | -2.16 ± 1.9
Nc1nc2ccc(OC(F)(F)F)cc2s1 | 19.1 ± 9.8
O=c1ccc2c(o1)/C(=C/C=C(Cl)Cl)CCC2 | -2.26 ± 3.7
Cc1cccc(N2CCN(C(=S)c3ccccc3)CC2)c1 | 6.51 ± 2.4
O=c1c(-c2ccc3c(c2)OCCO3)coc2cc(OC3OC(CO)C(O)C(O)C3O)ccc12 (configuration not stated) | 29.3 ± 9.5
C=CCc1cc(Cl)ccc1OCCOCCN(C)C | 2.96 ± 3.2
Cn1c(=O)c2c(ncn2Cc2ccccc2)n(C)c1=O | -3.59 ± 7.1
CC(=O)NC1C(OCCOc2ccc(Cl)cc2Cl)OC(COC(C)=O)C(OC(C)=O)C1OC(C)=O (configuration not stated) | -3.11 ± 1.6
CCOC(=O)C(NC(=O)CCC(=O)Nc1ccc(S(N)(=O)=O)cc1)C(O)c1ccccc1 (configuration not stated) | 0.478 ± 4.7
CCOC(=O)C1C(=O)OC2(CCOC(C)(C)C2)C1C(=O)OCC (configuration not stated) | -0.371 ± 1.7
O=C(C1CCCCC1)N1CC(=O)N2CCc3ccccc3C2C1 (configuration not stated) | 0.441 ± 1.9
Cc1ccc(OCCCCn2ccnc2C)c(C)c1 | -9.92 ± 0.16
C(=C\c1ccccc1)/CN1CCN(C(c2ccccc2)c2ccccc2)CC1 | 1.42 ± 0.85
Cc1ccc(C(=O)NC(=S)NCCCN2CCOCC2)cc1 | 8.31 ± 1.3
COc1ccc(-c2cc(=Nc3ccc(C)cc3)c3ccccc3o2)cc1 | 2.07 ± 3
Cc1ccc(N2CCN(C(=S)c3ccc(-c4cccc([N+](=O)[O-])c4)o3)CC2)cc1 | -1.43 ± 5
CCN(CC)C1=C(Cl)C(=O)C(Cl)C12OCCO2 (configuration not stated) | -4.69 ± 4.8
Cc1ccccc1C(=O)Oc1ccc(Sc2ccc(O)cc2)cc1 | 2.2 ± 3.6
Nc1cccc2c1nnn2C1OC(CO)C(O)C(O)C1O (configuration not stated) | -1.09 ± 3.5
CC(C)CC(=O)OC1C(N2CCOCC2)c2c(ccc(/C=C/C(=O)N3CCOCC3)c2O)OC1(C)C (configuration not stated) | -1.24 ± 1.2
CN1CCN(CCCN2c3ccccc3Sc3ccc(Cl)cc32)CC1 | 5.89 ± 0.32
N=c1c[n+](N2CCOCC2)[n-]o1 | 9.34 ± 8.2
CC1(C)CC(NC(=O)C23CCC(C)(C(=O)C2=O)C3(C)C)CC(C)(C)N1 (configuration not stated) | -0.597 ± 0.005
COc1cccc2c1OCC1COc3c(c(=O)n(C)c(=O)n3C)C21 (configuration not stated) | -2.86 ± 0.88

SMILES | CD40L-induced NF-kB luciferase activity
CC(C)(C)C(=O)N1CCCC1C(=O)O (configuration not stated) | -4.18 ± 0.47
COc1ccc(-c2coc3cc(OC(=O)N4CCOCC4)ccc3c2=O)cc1 | 5.32 ± 1.2
O=C(O)C(O)c1ccccc1 (configuration not stated) | 2.53 ± 5.7
COc1ccc(CCN(C)CCCC(C#N)(c2cc(OC)c(OC)c(OC)c2)C(C)C)cc1OC (configuration not stated) | -0.471 ± 4.4
COc1c2occc2c(OC)c2c(=O)cc(C)oc12 | -3.56 ± 14
CSc1cccc(NC(=O)/C=C/c2ccccc2)c1 | 81.1 ± 9.6
CC(C)c1ccccc1OCCNC(=S)NC(=O)c1cccnc1 | 3.51 ± 10
CC(NCCC(c1ccccc1)c1ccccc1)c1ccccc1 (configuration not stated) | -4.35 ± 5.6
O=c1[nH]c(=O)n(C2CCCO2)cc1F (configuration not stated) | -7.09 ± 16
CCOCC(=O)Nc1nc2ccccc2s1 | 50.7 ± 10
Oc1ccccc1OCCOc1ccccc1OCCOc1ccccc1O | 0.962 ± 5
CC(C)c1ccc(NC(=O)CNS(=O)(=O)c2ccc(F)cc2)cc1 | 0.331 ± 3.1
CSCCC(NC(=O)/C(=C/c1ccc2c(c1)OCO2)NC(=O)c1cccc([N+](=O)[O-])c1)C(=O)O (configuration not stated) | -2.59 ± 8.9
CCc1cn([C@H]2C[C@H](O)[C@@H](CO)O2)c(=O)[nH]c1=O | -9.17 ± 10
CCOC(=O)C1C(=O)CC(C)(O)C(C(=O)OCC)C1/C=C/c1ccccc1 (configuration not stated) | -3.18 ± 2.8
O=[N+]([O-])c1cccc2cn[nH]c12 | 4.15 ± 5.7
CN1CCc2c(n(CC(O)CN(CCO)CCO)c3ccccc23)C1=O (configuration not stated) | 0.276 ± 3
O=C(Nc1ccccc1C(=O)N1CCCCCC1)c1ccccc1Cl | -0.549 ± 0.96
CCCNCC(O)COc1ccccc1C(=O)CCc1ccccc1 (configuration not stated) | -5.3 ± 4.3
COC(=O)c1ccc(-c2ncc(-c3cccc4ccccc34)o2)cc1 | 10.3 ± 4.3
COc1cccc(NC(=O)C2CC(=O)OC23CCOC(C)(C)C3)c1 (configuration not stated) | 4.32 ± 4.7
CC12CCC(C(=O)NCc3ccccn3)(OC1=O)C2(C)C (configuration not stated) | 3.06 ± 4.9
COc1ccc(NC(=O)Nc2ccc(C(C)C)cc2)cc1 | 13.4 ± 0.33
CCOC(=O)N1CCN(Cc2nc(Cc3cccc(F)c3)no2)CC1 | 1.41 ± 2.9

SMILES | CD40L-induced NF-kB luciferase activity
O=C1[C@@H]2[C@H](Cc3ccc(O)cc3)N[C@]3(C(=O)Nc4ccccc43)[C@@H]2C(=O)N1c1ccc(F)cc1 | -2.13 ± 3.5
C[C@H]1C[C@@H]2[C@H]([C@@H](O)C[C@@]3(C)[C@H]2CC[C@]3(O)C(=O)CO)[C@@]2(C)C=CC(=O)C=C12 | -35.94 ± 0.26
CC(=O)O[C@]1(C(C)=O)CC[C@H]2[C@@H]3C[C@H](C)C4=CC(=O)CC[C@]4(C)[C@H]3CC[C@@]21C | -12.6 ± 2.8
O=C(O)c1cc(-c2ccccc2)nc2ccccc12 | -0.943 ± 1.9
Cc1ccc(S(=O)(=O)N2CCC(C(=O)N[C@@H](C)C(=O)NC3CCS(=O)(=O)C3)CC2)cc1 (some centres not stated) | 1.22 ± 6.4
NNC(=O)c1cc(O)c(O)c(O)c1 | -10.4 ± 0.34
Nc1ccc2[nH]ncc2c1 | 1.09 ± 0.57
COC(=O)CSc1nc2ccc(N)cc2s1 | 0.507 ± 4.2
O=C(CCc1c[nH]c2ccccc12)NCc1ccco1 | -0.871 ± 1.7
CN(C)c1nc(N(C)C)nc(N(C)C)n1 | 5.48 ± 8.4
Cc1ccc2nc(C)c3c(c2c1)OC(C(C)(Cl)Br)C3 (configuration not stated) | -6.39 ± 6.3
COc1ccc(NC(=O)C2CSC3c4ccccc4C(=O)N23)cc1 (configuration not stated) | 0.88 ± 2.1
COc1ccc(NC2=C(Cl)C(=O)N(c3ccccc3)C2=O)c(OC)c1 | 0.117 ± 8.5
COc1ccc(CCN(C)CC(=O)Nc2cc(C)nc3ccccc23)cc1OC | -1.3 ± 3.8
CCN(CCCCCN(C)C)Cc1cc2ccccc2o1 | 2.26 ± 4.4
CN(C)CC/C=C1\c2ccccc2Sc2ccc(Cl)cc21 | -5.29 ± 14
CCOc1cccc(N2C(=O)CC(N(CCc3ccc(OC)c(OC)c3)C(=O)CC)C2=O)c1 (configuration not stated) | 0.027 ± 3.1
Cc1ccc(C(=O)N2CC3(C(C)C)CN(C(=O)c4ccc(C)cc4)CC(C(C)C)(C2)C3=O)cc1 | 2.71 ± 3.2
CCC(=O)O[C@]1(C(=O)CCl)[C@@H](C)C[C@H]2[C@@H]3CCC4=CC(=O)C=C[C@]4(C)[C@@]3(F)[C@@H](O)C[C@@]21C | -21.44 ± 0.014
Cc1c(O)c(=O)ccn1C | 4.22 ± 1.5
Cc1nc(-c2coc3c(CN(C)C)c(O)ccc3c2=O)cs1 | 1.46 ± 3.9
N#Cc1c2c(c(-c3ccccc3)[nH]c1=O)CCCC2 | -1.45 ± 2.6
CC(C)c1ccc(/C=C/C(=O)O)cc1 | -0.663 ± 2.9
COc1ccc(C2CNC(=O)C2)cc1OC1CCCC1 (configuration not stated) | -2.32 ± 5.5
